Target: T1, His-Star-PAP (full length His-tagged Speckle Targeting and PIPKIα Regulated Poly(A) Polymerase) (human, UniProt Q9H6E5 1-874)
T1 construct: Full length; also called His-tagged Star-PAP; not shown: His tag from the pET28 vector
T1 sequence: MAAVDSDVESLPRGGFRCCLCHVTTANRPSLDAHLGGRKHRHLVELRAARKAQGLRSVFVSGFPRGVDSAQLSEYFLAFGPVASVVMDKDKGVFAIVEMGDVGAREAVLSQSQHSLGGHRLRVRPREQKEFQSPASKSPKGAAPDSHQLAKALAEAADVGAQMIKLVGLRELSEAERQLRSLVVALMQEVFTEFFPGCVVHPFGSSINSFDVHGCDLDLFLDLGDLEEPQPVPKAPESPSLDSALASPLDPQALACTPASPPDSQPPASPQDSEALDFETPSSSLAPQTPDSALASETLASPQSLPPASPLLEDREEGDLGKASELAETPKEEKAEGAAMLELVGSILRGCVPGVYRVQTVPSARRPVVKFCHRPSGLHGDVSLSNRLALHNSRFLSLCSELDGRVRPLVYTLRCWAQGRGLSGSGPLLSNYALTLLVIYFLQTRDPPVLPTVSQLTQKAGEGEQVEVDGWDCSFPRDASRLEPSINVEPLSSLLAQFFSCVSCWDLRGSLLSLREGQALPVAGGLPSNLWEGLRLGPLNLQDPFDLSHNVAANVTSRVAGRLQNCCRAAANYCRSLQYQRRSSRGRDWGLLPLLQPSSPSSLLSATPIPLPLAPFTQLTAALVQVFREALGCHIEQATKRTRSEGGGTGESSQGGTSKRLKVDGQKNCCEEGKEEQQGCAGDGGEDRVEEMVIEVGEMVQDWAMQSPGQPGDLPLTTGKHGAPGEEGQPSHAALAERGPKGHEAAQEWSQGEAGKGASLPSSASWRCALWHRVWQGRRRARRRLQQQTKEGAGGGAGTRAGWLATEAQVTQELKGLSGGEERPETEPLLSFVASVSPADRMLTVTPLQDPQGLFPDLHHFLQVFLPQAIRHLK
Experiment: in vitro GST pulldown

B1: GST alone (other)
chain: not shown
notes: Negative control of the GST pulldown
Question: Does B1 bind?
Answer: no binding

Reference: patent US20090263375A1 (WISCONSIN ALUMNI RESEARCH FOUNDATION, published 2009)
